Data from publication PMC4336329 (PLoS ONE, 2015).
Out of some 310,000 compounds screened, about 14,000 (4.5%) showed an effect of 50% or more. Effects have a minus sign here. The list shows a part of the results.

molecular target: human ether-à-go-go-related gene (hERG) potassium channel (human, UniProt Q12809); assay: primary screen, population patch clamp on CHO cells stably expressing hERG
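Further: peak tail current of the secondary pulse compared with the same well before compound.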

Chain of human ether-à-go-go-related gene (hERG) potassium channel (Q12809 whole entry, looked up): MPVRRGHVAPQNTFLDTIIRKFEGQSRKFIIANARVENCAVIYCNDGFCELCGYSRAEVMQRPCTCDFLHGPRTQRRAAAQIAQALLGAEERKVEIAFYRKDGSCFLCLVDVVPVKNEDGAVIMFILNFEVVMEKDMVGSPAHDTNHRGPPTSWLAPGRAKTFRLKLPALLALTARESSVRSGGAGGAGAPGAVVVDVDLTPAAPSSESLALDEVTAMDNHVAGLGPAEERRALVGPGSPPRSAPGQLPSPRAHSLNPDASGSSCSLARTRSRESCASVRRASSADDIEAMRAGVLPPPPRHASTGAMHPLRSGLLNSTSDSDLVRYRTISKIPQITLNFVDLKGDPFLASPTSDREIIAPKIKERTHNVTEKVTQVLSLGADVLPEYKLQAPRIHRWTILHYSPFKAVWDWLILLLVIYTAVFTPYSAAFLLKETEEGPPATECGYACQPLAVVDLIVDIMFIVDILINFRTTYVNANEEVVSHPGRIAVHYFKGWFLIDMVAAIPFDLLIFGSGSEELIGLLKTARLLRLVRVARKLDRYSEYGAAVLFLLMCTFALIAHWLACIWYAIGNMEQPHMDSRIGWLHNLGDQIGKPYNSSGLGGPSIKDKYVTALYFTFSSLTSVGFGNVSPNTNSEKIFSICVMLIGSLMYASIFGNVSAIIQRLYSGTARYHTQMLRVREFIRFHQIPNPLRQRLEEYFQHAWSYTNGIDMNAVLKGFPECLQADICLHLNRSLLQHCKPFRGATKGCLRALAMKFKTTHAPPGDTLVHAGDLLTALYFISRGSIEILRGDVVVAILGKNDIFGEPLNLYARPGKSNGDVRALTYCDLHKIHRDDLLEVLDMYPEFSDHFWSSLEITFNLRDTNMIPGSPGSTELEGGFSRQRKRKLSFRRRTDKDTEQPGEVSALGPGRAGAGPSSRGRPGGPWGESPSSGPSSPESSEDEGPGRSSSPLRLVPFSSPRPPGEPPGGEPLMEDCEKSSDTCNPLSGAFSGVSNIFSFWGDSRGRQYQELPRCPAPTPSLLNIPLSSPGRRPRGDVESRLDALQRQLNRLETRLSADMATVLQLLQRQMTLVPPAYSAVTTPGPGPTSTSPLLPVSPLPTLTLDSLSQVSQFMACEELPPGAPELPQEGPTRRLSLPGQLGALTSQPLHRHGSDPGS

| SMILES | hERG current change (%, negative = inhibition) at 10uM [%] |
| --- | --- |
| O=C(CCCOc1ccccc1)Nc1ccc(Br)cc1 | 22.3 |
| CCn1c(SCC(=O)Nc2ccc(N(C)C)cc2)nnc1C1CC1 | 15.8 |
| Br.Cn1c(CS/C(N)=N/N=C/c2ccccc2)c(Br)c(=O)n1-c1ccccc1 | -25.5 |
| CCN(CC)S(=O)(=O)c1ccc2oc(SCC(=O)Nc3cc(C)on3)nc2c1 | -7.68 |
| O=C(COC(=O)CC12CC3CC(CC(C3)C1)C2)Nc1ncc(Cl)cc1Cl | -20.1 |
| COc1cc(/C=C(\C#N)C(=O)Nc2ccc3c(c2)OCCO3)ccc1O | 3.28 |
| CCOC(=O)c1c(NC(=S)N2CCN(C)CC2)sc(C)c1-c1ccccc1 | -5.42 |
| Cc1nnc(C)n1/N=C/c1ccc2c(c1)OCCO2 | 5.7 |
| Cc1cc(C(C)(C)C)cc(S(=O)(=O)NCC(=O)O)c1C | 10.3 |
| CCc1cc(=O)oc2c(C)c(OCC(=O)NCc3ccccn3)ccc12 | 10.2 |
| Cc1ccc(Nc2c([N+](=O)[O-])c(=O)oc3ccccc23)cc1 | 7.67 |
| O=C(COC(=O)c1ccccc1NC(=O)c1ccco1)Nc1ccc2c(c1)OCO2 | -3 |
| Cc1ccc(Nc2nc(-c3sc(NC(=O)c4ccco4)nc3C)cs2)cc1 | -3.82 |
| O=C(Nc1ccc2nc3n(c(=O)c2c1)CCCCC3)C(=O)N1CCN(c2ccccc2)CC1 | -0.831 |
| O=C(/C=C/c1ccccc1[N+](=O)[O-])Oc1ccccc1 | 7.19 |
| Nc1nc(NCCc2ccccc2)nc(NCCO)c1[N+](=O)[O-] | -14.9 |
| CC(C)=CCC12Oc3cc(O)ccc3C1(O)Oc1cc3c(c(O)c1C2=O)C=CC(C)(C)O3 (centres unmarked) | 15.2 |
| CCCCCn1c(CCNC(=O)c2cccs2)nc2ccccc21 | -52.5 |
| O=C(O)C1C2C=CC(C2)C1C(=O)Nc1ccc(Cl)c(Cl)c1 (centres unmarked) | -0.372 |
| CCOc1ccc(NC(=O)N(Cc2ccc(C)cc2)Cc2ccccn2)cc1 | -36.3 |
| Cc1cccc(N(C)S(=O)(=O)c2cccc3nsnc23)c1 | -3.39 |
| COCCNC(=S)Nc1cc(S(=O)(=O)N2CCOCC2)ccc1N1CCCCC1 | -6.45 |
| Cc1ccc2nc(N3C(=O)C(O)=C(C(=O)c4ccco4)C3c3ccc(C)o3)sc2c1.O=C(O)C(=O)O (centres unmarked) | 1.65 |

| SMILES | hERG current change (%, negative = inhibition) at 10uM [%] |
| --- | --- |
| CCCCNC(=O)CN(Cc1ccco1)S(=O)(=O)c1ccc(C(C)=O)cc1 | -45.5 |
| Cc1cccc(NS(=O)(=O)c2ccc3c(c2)NC(=O)CC(=O)N3)c1 | 25.2 |
| Cc1ccc(Cl)cc1N1CCN(C(c2cccnc2)c2nnnn2C2CCCCC2)CC1 (centres unmarked) | -2.86 |
| Cc1ccc(CNc2ccc(N3CCOCC3)c(Cl)c2)cc1 | 4.55 |
| COc1cccc(CCNC(=O)CCCC(=O)c2ccccc2)c1 | -4.6 |
| O=C(N[C@H](Cc1cc(=O)[nH]c2ccccc12)C(=O)O)c1ccc(Cl)cc1 | 10.9 |
| Cc1ccc(O)c(C(=O)c2cc(C#N)c(=O)n(Cc3ccccc3)c2)c1 | -5.43 |
| Oc1cccc2ccc[n+](CC(O)Cn3c4ccccc4c4ccccc43)c12.[Cl-] (centres unmarked) | 5.74 |
| CCCc1cc(=O)oc2cc(C)cc(OCC(=O)NC3CCN(Cc4ccccc4)CC3)c12 | -10.3 |
| CN(Cc1ccccc1O)CC1CCCN(CCc2ccc(Cl)cc2)C1 (centres unmarked) | -76.1 |
| CC(=O)Oc1c(C)cc(Cl)cc1C(=O)Nc1ccc([N+](=O)[O-])cc1Cl | 21.9 |
| CCOC(=O)c1ccc(-n2cncn2)nc1 | -5.08 |
| CCOC(=O)Cn1c2c(c(=N)c3c1CCC3)CCC2.Cl | 8.34 |
| CC1CCCCN1C(=O)CSc1nc(N)nc(N)n1 (centres unmarked) | 22.5 |
| O=C(COc1cccc(Oc2ccccc2)c1)Nc1ncccn1 | -3.9 |
| C/C(=C\c1ccccc1)C(=O)NCc1ccco1 | 20.7 |
| CCOC(=O)CC1(c2ccc(OC)c(OC)c2)C(=O)c2ccccc2C1=O | -1.97 |
| CCc1ccc(-c2csc(NC(=O)C3CCCO3)c2C(=O)OC(C)C)cc1 (centres unmarked) | 11.2 |
| CC(=O)N1CC2([N+](=O)[O-])CN(C(C)=O)CC([N+](=O)[O-])(C1)C2(C)C | 26.9 |
| CCN1CCN(Cc2ccc(NC(=O)c3cc(NC(=O)N4CCNC4=O)cc(OC)c3)cc2C(F)(F)F)CC1 | -9.24 |
| Nc1ccc(-n2nc3ccccc3n2)cc1 | 6.34 |
| CS(=O)(=O)c1ccc(NC(=O)c2ccc3c(c2)S(=O)(=O)N=C2CCCCCN23)cc1 | 1.4 |
| CSc1nnc(NC(=O)c2cc(=O)c3cc(C)cc(C)c3o2)s1 | 23.2 |

| SMILES | hERG current change (%, negative = inhibition) at 10uM [%] |
| --- | --- |
| Nn1cnc2scc(-c3ccco3)c2c1=O | 18.3 |
| c1ccc2c(CN3CCCCCCC3)c[nH]c2c1 | -22.4 |
| Cc1ccc(S(=O)(=O)NCC(=O)N(CC(=O)NCc2ccco2)Cc2ccc3c(c2)OCO3)cc1 | -16.2 |
| O=S(=O)(c1ccc(NC(=S)NCCC(c2ccccc2)c2ccccc2)cc1)N1CCOCC1 | 10.2 |
| CC1Cc2cccc3c(O)c(C(=O)c4nn[nH]n4)c(=O)n1c23 (centres unmarked) | 15.4 |
| CCOC(=O)N1CCC(NC(=O)CSc2cc(=O)n(C)c3ccccc23)CC1 | -13.7 |
| CC1CCCCN1S(=O)(=O)c1ccc(S(=O)(=O)N(Cc2ccccc2)Cc2ccco2)cc1 (centres unmarked) | -1.48 |
| Cc1cc(Nc2ccc(F)cc2C)n2nc(C)nc2n1 | -2.17 |
| COCCCN1C(=O)C(O)=C(C(C)=O)C1c1ccccn1.Cl (centres unmarked) | 3.25 |
| CC(=O)Nc1ccc([N+](=O)[O-])cn1 | 24.4 |
| Cc1nnc(SCC(=O)Nc2sc3c(c2C(N)=O)CCCC3)[nH]c1=O | 6.78 |
| N#Cc1cc(-c2ccccc2)nnc1Sc1ccc(Cl)cc1 | -3.12 |
| Cc1n[nH]c(=O)nc1NCCN(C)C | 17.4 |
| CN(C)c1ccc(C(=O)N/N=C/c2ccccn2)cc1 | 0.484 |
| Cc1ccc(NC(=O)Cn2ncn3c(cc4ccccc43)c2=O)c(C)c1 | 1.77 |
| CCS(=O)(=O)c1ccc(-c2cccc(NC(=O)COc3ccc(Cl)cc3)c2)nn1 | -0.0211 |
| COC(=O)c1cccc(CSc2nnc(C)s2)c1 | -1.67 |
| C[C@H](NC(=O)c1[nH]cnc1C(=O)Nc1ccc(CNC(=O)OC(C)(C)C)cc1)C(=O)OC(C)(C)C | 17.2 |
| CC(=O)C1=NOC(CNC(=O)c2c(-c3ccccc3Cl)noc2C)C1 (centres unmarked) | 9.1 |
| Cc1ccc(C)c(NC(=O)CCC(=O)N/N=C/c2cccnc2)c1 | 14.7 |
| CCCn1c(N)c(C(=O)CSc2ncn[nH]2)c(=O)n(C)c1=O | 25.3 |
| NS(=O)(=O)c1ccc(NC(=O)COC(=O)CCc2ccc(S(=O)(=O)N3CCOCC3)cc2)cc1 | 10.4 |
| CCCC(=O)Nc1nnc(-c2cccc(OCC)c2)s1 | 7.25 |

| SMILES | hERG current change (%, negative = inhibition) at 10uM [%] |
| --- | --- |
| CCn1c(C)cc(/C=C2/SC(=S)N(CC(=O)O)C2=O)c1C | 9.75 |
| O=C(c1sc2ccccc2c1Cl)N(Cc1ccco1)C1CCS(=O)(=O)C1 (centres unmarked) | 0.891 |
| CCN(Cc1ccccc1)C(c1ccncc1)c1nnnn1C(C)(C)C (centres unmarked) | 0.0215 |
| COCCn1c(SCC(=O)NNC(=O)Cc2ccccc2)nc2ccccc2c1=O | 0.604 |
| C#CCN1CCN(c2ccc(F)cc2)CC1 | 5.72 |
| CS(=O)(=O)c1cnc2c(-c3ccsc3)cnn2c1N | 2.43 |
| CCOC(=O)c1[nH]ncc1CN1CCC(Cc2ccccc2)(C(=O)OCC)CC1 | -35.3 |
| COc1ccc(S(=O)(=O)N(C(=O)C(C)C)c2ccc3oc(=O)sc3c2)cc1 | 4.16 |
| Cc1ccc(-c2csc(NC(=O)CCNC(=O)c3ccco3)n2)cc1 | 5.76 |
| O=C(c1cccs1)N1CCCC1 | 12.3 |
| CCOC(=O)C1CN(C)CCC1=O.Cl (centres unmarked) | 6.3 |
| CC(=O)c1cccc(NC(=O)CSc2nc(=O)n(CCCN3CCOCC3)c3c2CCC3)c1 | -29.1 |
| Cc1c(NC(=O)c2ccc(S(=O)(=O)N3CCOCC3)cc2)c(=O)n(-c2ccccc2)n1C | 10.1 |
| O=C(OCCCN1CCCCC1)c1ccc(O)cc1 | -54.6 |
| Brc1cccc(OCCCN2CCCCCC2)c1.O=C(O)C(=O)O | -70 |
| CCOCCCNc1nc2c(c(=O)[nH]c(=O)n2C)n1CCCc1ccccc1 | -12.9 |
| O=C(CSc1nc2c(cnn2-c2ccccc2)c(=O)[nH]1)N1CCCCC1 | -15.6 |
| Cc1cccc(N2CC(C(=O)Nc3nc4ccc(S(C)(=O)=O)cc4s3)CC2=O)c1C (centres unmarked) | -0.339 |
| CCCCCc1c(O)nc(SCCN(CC)CC)[nH]c1=O.Cl | 9.87 |
| CCNC(=O)NCCNC(=O)c1cc(OCC(F)(F)F)ccc1OCC(F)(F)F | -1.64 |
